Hit rate of the full screen: of about 110,000 compounds, about 230 (0.21%) showed an effect of 50% or more. The list shows a part of the results.
Each compound was assayed against DPAP1 (Plasmodium falciparum, UniProt Q8IIJ9) (assay: primary screen, percent inhibition; read by cleavage of a fluorogenic dipeptide substrate; higher = more effect of the substance).
Set-up: species or system P. falciparum D10 trophozoite lysates; single well
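Further: 30 min substrate incubation versus DMSO and 10 µM JCP410 controls.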

DPAP1, sequence (Q8IIJ9 whole entry, looked up): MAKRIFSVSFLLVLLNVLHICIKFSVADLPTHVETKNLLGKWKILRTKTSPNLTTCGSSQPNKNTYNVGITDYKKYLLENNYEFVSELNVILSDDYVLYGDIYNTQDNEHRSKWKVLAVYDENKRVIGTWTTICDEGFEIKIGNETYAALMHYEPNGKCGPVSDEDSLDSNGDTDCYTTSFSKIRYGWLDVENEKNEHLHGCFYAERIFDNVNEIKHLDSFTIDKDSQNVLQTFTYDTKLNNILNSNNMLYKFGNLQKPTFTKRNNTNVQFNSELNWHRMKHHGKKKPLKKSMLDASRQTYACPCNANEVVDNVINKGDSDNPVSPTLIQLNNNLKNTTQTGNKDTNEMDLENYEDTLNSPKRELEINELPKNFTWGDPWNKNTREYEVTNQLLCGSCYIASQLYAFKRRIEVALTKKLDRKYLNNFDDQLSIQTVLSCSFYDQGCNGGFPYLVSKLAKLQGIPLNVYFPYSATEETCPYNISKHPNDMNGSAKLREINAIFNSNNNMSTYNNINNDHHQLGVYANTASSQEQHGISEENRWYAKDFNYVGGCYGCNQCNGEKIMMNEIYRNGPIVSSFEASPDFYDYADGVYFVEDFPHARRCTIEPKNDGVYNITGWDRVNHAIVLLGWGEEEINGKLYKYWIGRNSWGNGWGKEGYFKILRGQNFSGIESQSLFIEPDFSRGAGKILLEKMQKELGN

Structure (SMILES) | % Inhibition @ 10 uM [%]
O=C(Nc1ccncc1)c1ccc(-n2nc(C(F)(F)F)c3c2CCCC3)cc1 | 0.323
CC(C)CNS(=O)(=O)c1ccc(CCC(=O)Nc2ccc(C(F)(F)F)cc2)cc1 | 2.82
CC(C)CCN1CC(C(=O)NC2CCCCCC2)CC1=O (stereo not drawn) | -3.12
CCSc1c(-c2ccccc2)nc2ccccc2c1C(=O)O | 4.3
CCCN1CCC(NCCc2ccc(Cl)cc2Cl)CC1 | -1.56
Cc1c(C)n(CC(O)CNC(CO)(CO)CO)c2ccccc12 (stereo not drawn) | -1.81
O=C(CSc1nc(O)cc(-c2ccccc2)n1)N1CCc2ccccc2C1 | 3.91
Cc1oc(-c2ccccc2Cl)nc1CS(=O)(=O)CC(=O)NCCC1=CCCCC1 | -6.52
CCCCSCCCNC(=O)c1ccc(CS(=O)(=O)c2ccc(Cl)cc2)o1 | 5.47
N=C(NOC(=O)COc1ccc(Cl)cc1Cl)c1ccccn1 | 0.484
Cc1ccc(-c2c(NCC3CCN(Cc4cccc(C)c4)CC3)c(=O)c2=O)cc1 | -0.255
Cc1ccc(OCc2nc(-c3cccnc3)no2)c(Br)c1 | -4.61
O=C(/C=C/c1ccccc1)Nc1ccc(C(=O)O)cc1 | -4.94
COC(=O)C(Cc1c[nH]c2ccccc12)NC(=O)c1ccc(-c2ccccc2)cc1 (stereo not drawn) | 1.7
CCN1CCN(c2nc3ccc(C(=O)c4ccccc4)cc3n3cnnc23)CC1 | -6.58
CCN1C(=O)/C(=C\c2ccc(N(C)C)cc2)S/C1=N\c1ccccc1 | 0.00477
COc1cccc(-c2ccc3c(N)c(C(=O)Nc4ccc(C(C)=O)cc4)sc3n2)c1 | 10.1
CCOc1ccc(N2CC(C(=O)Nc3ccc(N(C)C)cc3)CC2=O)cc1 (stereo not drawn) | 3.62
CN1CCN(C(=O)C2CC(c3ccc(F)cc3)=NO2)CC1 (stereo not drawn) | -0.431
N#CCSc1nc2ccccc2c(=O)n1-c1ccccc1 | -7.16
Cc1c(C(=O)NCc2ccc(F)cc2)sc2nc3n(c(=O)c12)CCCCC3 | -0.788
CCCCOc1ccc(C(=O)NC(C)C2COc3ccccc3O2)cc1 (stereo not drawn) | -1.06
CC(NC(=O)C1CCN(c2ncccn2)CC1)c1ccncc1 (stereo not drawn) | 2.41
O=C(NCCc1ccc(Cl)cc1)c1cc(S(=O)(=O)N2CCCCC2)c[nH]1 | -6.87
CC(C)C(Nc1c([N+](=O)[O-])cc(C(F)(F)F)cc1[N+](=O)[O-])C(=O)O (stereo not drawn) | -2.62
COc1ccc(-c2noc(-c3ccc(Cl)cc3Cl)n2)cc1 | -0.48
Cc1c(C)n(C)c2ccc(C(=O)Nc3ccc(S(=O)(=O)N4CCCC4)cc3)cc12 | -3.19
